# Measurements reported in the antibiotic and cytotoxicity screens of Wong et al. (2023).
# Some of the results follow.
# Assays:
# [1] = system: HSkMC (human skeletal muscle cells); experiment: cytotoxicity call (relative viability < 0.9); details: 10 µM
# [2] = system: HepG2; experiment: cytotoxicity call (relative viability < 0.9); details: 10 µM
# [3] = system: S. aureus RN4220; experiment: growth inhibition call (relative growth <= 0.2); details: 50 µM
SMILES,cytotoxicity call [1],cytotoxicity call [2],growth inhibition call [3]
COC1(NC(=O)C2SC(=C(C(N)=O)C(=O)O)S2)C(=O)N2C(C(=O)O)=C(CSc3nnnn3C)CSC21 (stereo not drawn),inactive,inactive,active
C[C@@H]1CN([C@H](C)CO)C(=O)Cc2cc(NS(=O)(=O)c3cccs3)ccc2O[C@@H]1CN(C)S(=O)(=O)c1ccccc1,inactive,inactive,inactive
CS(=O)(=O)N1[C@@H]2Cn3c(cccc3=O)[C@H]1[C@@H](C(=O)NCc1ccccc1)[C@@H]2CO,inactive,inactive,inactive
Cc1ccc(S(=O)(=O)Nc2ccc3c(c2)C(=O)N([C@@H](C)CO)C[C@@H](C)[C@H](CN(C)Cc2ccc(Oc4ccccc4)cc2)O3)cc1,inactive,inactive,inactive
Cc1noc(C)c1NC(=O)Nc1ccc2c(c1)C(=O)N([C@H](C)CO)C[C@@H](C)[C@H](CN(C)S(C)(=O)=O)O2,inactive,inactive,inactive
C[C@@H]1CN([C@@H](C)CO)C(=O)c2cccc(NC(=O)c3cnccn3)c2O[C@@H]1CN(C)Cc1ccccc1,inactive,inactive,inactive
CC(C)c1nc(CN(C)C(=O)N[C@H](C(=O)N[C@@H](Cc2ccccc2)C[C@H](O)[C@H](Cc2ccccc2)NC(=O)OCc2cncs2)C(C)C)cs1,inactive,inactive,inactive
CC(C)NC(=O)N(C)C[C@H]1Oc2ccc(NC(=O)NC3CCCCC3)cc2CC(=O)N([C@@H](C)CO)C[C@@H]1C,inactive,inactive,inactive
C[C@H]1CCCCO[C@@H](CN(C)C(=O)CCC(F)(F)F)[C@@H](C)CN([C@@H](C)CO)C(=O)c2cc(NS(=O)(=O)c3ccccc3)ccc2O1,inactive,inactive,inactive
C=C(C(=O)O[C@H]1CC=C(C)C[C@H](O)[C@H]2[C@H](C)C(=O)O[C@@H]2/C=C/1C)[C@@H]1CCC(=C)[C@@H]2C[C@H](O[C@@H]3O[C@H](CO)[C@@H](O)[C@H](O)[C@H]3O)C(=C)[C@@H]2C1,inactive,inactive,inactive
NC[C@@](O)(c1ccc(Cl)cc1)c1ccc(-c2cn[nH]c2)cc1,inactive,active,inactive
C[C@@H]1CN([C@@H](C)CO)C(=O)c2cc(NC(=O)Nc3ccccc3)ccc2O[C@@H](C)CCCCO[C@H]1CN(C)Cc1ccc(Cl)c(Cl)c1,inactive,inactive,inactive
C[C@@H]1CN([C@H](C)CO)C(=O)c2cccc(NS(=O)(=O)c3ccc(F)cc3)c2O[C@H]1CN(C)Cc1ccncc1,inactive,inactive,inactive
C[C@H]1CN([C@@H](C)CO)C(=O)c2cccc(NC(=O)C3CCOCC3)c2O[C@H]1CN(C)Cc1ccc2c(c1)OCO2,inactive,inactive,inactive
COc1ccc(CN(C)C[C@@H]2OCCCC[C@H](C)Oc3ccc(NS(=O)(=O)c4c(C)noc4C)cc3C(=O)N([C@@H](C)CO)C[C@H]2C)cc1,inactive,inactive,inactive
COc1ccc(-c2cnc3c(c2)C(=O)N([C@H](C)CO)C[C@H](C)[C@H](CN(C)S(=O)(=O)c2ccc(F)cc2)O3)cc1,inactive,inactive,inactive
C[C@H](CO)N1C[C@H](C)[C@H](CN(C)C(=O)CCCN(C)C)OCCCC[C@H](C)Oc2ccc(NC(=O)Nc3ccc(C(F)(F)F)cc3)cc2C1=O,inactive,inactive,inactive
C[C@@]12CC[C@@H]3c4ccc(O)cc4C[C@H](CCCCCCCCC[S@@](=O)CCCC(F)(F)C(F)(F)F)[C@@H]3[C@@H]1CC[C@@H]2O,inactive,inactive,inactive
COc1ccc(NC(=O)Nc2ccc3c(c2)C(=O)N([C@H](C)CO)C[C@H](C)[C@@H](CN(C)Cc2ccc(C(F)(F)F)cc2)OCCCC[C@H](C)O3)cc1,inactive,inactive,inactive
CC(C)NC(=O)Nc1ccc2c(c1)C(=O)N([C@@H](C)CO)C[C@@H](C)[C@H](CN(C)S(=O)(=O)c1cccs1)O2,inactive,inactive,inactive
C[C@H](CO)N1C[C@H](C)[C@H](CN(C)S(=O)(=O)c2cccc(F)c2)Oc2ncc(C#Cc3ccccc3)cc2C1=O,inactive,inactive,inactive
C[C@@H]1CN([C@@H](C)CO)C(=O)c2cc(C#CC3(O)CCCC3)cnc2O[C@@H]1CN(C)C(=O)CN(C)C,inactive,inactive,inactive
CNC(=O)C[C@@H]1C[C@@H]2CN(S(=O)(=O)c3cccnc3)C[C@@H]2O1,inactive,inactive,inactive
C[C@@H]1CN([C@H](C)CO)C(=O)c2cc(C#C[C@@H](C)O)cnc2O[C@H]1CN(C)C(=O)CN1CCOCC1,inactive,inactive,inactive
COc1ccc(S(=O)(=O)Nc2ccc3c(c2)CC(=O)N([C@@H](C)CO)C[C@H](C)[C@H](CN(C)Cc2ccc(C(=O)O)cc2)O3)cc1,inactive,inactive,inactive
O=C(C[C@H]1C=C[C@H](NS(=O)(=O)c2ccc(F)cc2)[C@H](CO)O1)N1CCC(Cc2ccccc2)CC1,inactive,inactive,inactive

SMILES,cytotoxicity call [1],cytotoxicity call [2],growth inhibition call [3]
COc1ccc(CNC(=O)N(C)C[C@H]2OCc3ccccc3-c3c(n(C)c4ccccc34)C(=O)N([C@H](C)CO)C[C@@H]2C)cc1,inactive,inactive,inactive
C[C@H](CO)N1C[C@H](C)[C@H](CN(C)C(=O)Nc2ccc3c(c2)OCO3)Oc2c(NC(=O)c3ccncc3)cccc2C1=O,inactive,inactive,inactive
C[C@H]1CN([C@@H](C)CO)C(=O)c2cc(NC(=O)C3CC3)ccc2O[C@@H]1CN(C)S(=O)(=O)c1cn(C)cn1,inactive,inactive,inactive
C[C@H](CO)N1C[C@H](C)[C@H](CN(C)C(=O)Nc2cccc3ccccc23)OCCCC[C@H](C)Oc2ccc(NC(=O)Nc3ccccc3)cc2C1=O,inactive,inactive,inactive
COc1ccccc1CN1C(=O)c2ccccc2[C@@]2(Cc3ccccc3N(C3CC3)C2=O)[C@@H]1c1ccc(CO)cc1,inactive,inactive,inactive
C[C@H]1CN([C@@H](C)CO)C(=O)Cc2cc(NC(=O)CCC(F)(F)F)ccc2O[C@H]1CN(C)C(=O)Nc1cccc2ccccc12,inactive,inactive,inactive
C[C@H]1CN([C@@H](C)CO)C(=O)c2cc(NC(=O)Cn3cnnn3)ccc2O[C@@H]1CN(C)C(=O)Nc1ccccc1,inactive,inactive,inactive
CN1CCN(C(=O)[C@H]2[C@H](CO)[C@H]3Cn4c(cccc4=O)[C@@H]2N3Cc2ccncc2)CC1,inactive,inactive,inactive
C[C@H](CO)N1C[C@H](C)[C@H](CN(C)C(=O)NC2CCCCC2)Oc2ccc(NC(=O)Cn3cnnn3)cc2CC1=O,inactive,inactive,inactive
C[C@@H]1CN([C@H](C)CO)C(=O)CCCn2cc(nn2)CO[C@H]1CN(C)S(=O)(=O)c1ccc2c(c1)OCCCO2,inactive,inactive,inactive
C[C@@H]1CN([C@@H](C)CO)C(=O)Cc2cc(NC(=O)NC3CCCCC3)ccc2O[C@@H]1CN(C)C(=O)Nc1cccc2ccccc12,inactive,inactive,inactive
COc1ccc([C@@H]([C@H](Cc2ccccc2)OC(C)=O)N2C[C@@H](OC(C)=O)[C@@H]3[C@H]([C@@H]2Cc2ccccc2)N(C)O[C@H]3c2ccccc2)cc1,inactive,inactive,inactive
CON=C(C(=O)N[C@@H]1C(=O)N2C(C(=O)OCOC(=O)C(C)(C)C)=C(C=Cc3scnc3C)CS[C@H]12)c1csc(N)n1,inactive,inactive,active
CC(C)CC(=O)N[C@H](C(=O)N[C@H](C(=O)N[C@@H](CC(C)C)[C@@H](O)CC(=O)N[C@@H](C)C(=O)N[C@@H](CC(C)C)[C@@H](O)CC(=O)O)C(C)C)C(C)C,inactive,inactive,inactive
C[C@H]1CN([C@@H](C)CO)S(=O)(=O)c2ccc(C#CC3CC3)cc2O[C@H]1CN(C)C(=O)C1CCCCC1,inactive,inactive,inactive
COc1ccc(NC(=O)Nc2cccc3c2O[C@@H](CN(C)Cc2ccc(Oc4ccccc4)cc2)[C@H](C)CN([C@H](C)CO)C3=O)cc1,inactive,inactive,inactive
COCC(=O)N1CC(=O)N2[C@@H](CO)[C@@H](c3ccc(C#Cc4cccnc4)cc3)[C@@H]2C1,inactive,inactive,inactive
CC(=O)N(C)C[C@H]1Oc2cc(C#CCN(C)C)ccc2S(=O)(=O)N([C@H](C)CO)C[C@@H]1C,inactive,inactive,inactive
Cc1ccc(S(=O)(=O)N2C[C@@H](O)COC[C@H]3O[C@H](CC(=O)NCc4ccc(C(F)(F)F)cc4)CC[C@@H]32)cc1,inactive,inactive,inactive
C=C/C=C/[C@@H]1C(=C)CN2[C@H]1[C@H](Cc1ccccc1)OC(=O)[C@@H]2Cc1ccc(-n2cc(-c3cccc(/C=C/C(=O)NO)c3)nn2)cc1,inactive,inactive,inactive
CNC[C@@H]1Oc2c(NS(=O)(=O)c3cn(C)cn3)cccc2C(=O)N([C@@H](C)CO)C[C@H]1C,inactive,inactive,inactive
C[C@@H]1CCCCO[C@H](CN(C)Cc2ccncc2)[C@H](C)CN([C@@H](C)CO)C(=O)c2cc(NC(=O)Nc3cccc4ccccc34)ccc2O1,inactive,active,inactive
C[C@@H]1CN([C@@H](C)CO)S(=O)(=O)c2ccc(C#Cc3ccccc3)cc2O[C@@H]1CN(C)S(C)(=O)=O,inactive,inactive,inactive
COc1cccc(S(=O)(=O)Nc2ccc3c(c2)OC[C@H](C)N(C(=O)Cc2cccnc2)C[C@H](C)[C@H](OC)CN(C)C3=O)c1,inactive,inactive,inactive
COc1ccc(S(=O)(=O)Nc2ccc3c(c2)C(=O)N([C@H](C)CO)C[C@@H](C)[C@@H](CN(C)S(=O)(=O)c2cccs2)O3)cc1,inactive,inactive,inactive
